# Some of the results follow. The source does not settle which construct or isoform was used.
# Molecular target: GST-SBP-ILF3 (Homo sapiens) (UniProt Q12906)
# Assay: targeted RNA Bind-n-Seq
# Settings: RBNS binding buffer: 25 mM Tris pH 7.5, 150 mM KCl, 3 mM MgCl2, 0.1% Tween, 0.5 mg/mL BSA, 1 mM DTT; 27 nM protein, 750 pM RNA pool; temperature not stated; high values mean tight binding; sequences stand for … in GGGUAAAAGCGAGGUGAA…CGGGACAAGUAUUAUGGG
row,Sequence,binding signal (log2 fold change)
1,GUGUGUUGUGUUGGCAUCUAACACAGCACG [gtspaired],-0.697
2,UUUUUUUUUUGAGAUGGGUACCAUCUUCUG [tttttgagapaired],0.444
3,GGUUGUUGUGUUGGUGCCUAACACAGCAAC [gtspaired],-0.313
4,UUUUUUUUUUGAGACUGACACAGUCUCCGG [tttttgagapaired],0.284
5,UUUUUUUUUUGAGAGUGAGGCACUCUCCUA [tttttgagapaired],0.0839
6,GUGGUUGGUGUUGGCCUCUAACACCAGCCG [gtspaired],-0.466
7,UUUUUUUUUUGAGAGCGGUACGCUCUCCUG [tttttgagapaired],-0.185
8,UUUUUUUUUUGAGAGGGAGCCCCUCUUCUG [tttttgagapaired],0.437
9,UUUUUUUUUUGAGAGGGGGACCCUUUCCAG [tttttgagapaired],0.513
10,UUUUUUUUUUGAGAUCGGCACGAUCUCCGG [tttttgagapaired],0.211
11,UUUUUUUUUUGAGACUGUGACAGUCUCCGG [tttttgagapaired],0.477
12,UUUUUUUUUUGAGAUGGUUUCCGUCUCCUA [tttttgagapaired],0.347
13,GUGGUGUGUGUUGGCAUCUAACACACAUCG [gtspaired],-0.608
14,UUUUUUUUUUGAGAUGGGGCCCAUCUCCUA [tttttgagapaired],0.51
15,UUUUUUUUUUGAGAUGGCGGCCAUCUUCUA [tttttgagapaired],0.533
16,UUUUUUUUUUGAGACGGAAGCCGUCUUCUA [tttttgagapaired],0.183
17,GUGUGUUGUGUUGGUUCCUAACACAGCACG [gtspaired],-0.596
18,UUUUUUUUUUGAGAGGGCGUCCCUCUCCAG [tttttgagapaired],0.959
19,UUUUUUUUUUGAGAUCGAUGCGAUCUCCUA [tttttgagapaired],0.17
20,UUUUUUUUUUGAGACGGCUCCCGUCUCCUA [tttttgagapaired],0.734
21,UUUUUUUUUUGAGAGCGGGUCGCUCUCCAG [tttttgagapaired],0.339
22,UUUUUUUUUUGAGAUGGGCUCCAUCUCCUG [tttttgagapaired],0.75
23,UUUUUUUUUUGAGACUGCGACAGUCUCCUA [tttttgagapaired],0.315
24,GUGUGGUGUGUUGGACCCUAACACAUCACA [gtspaired],-0.409
25,GGUUGUUGUGUUGGAACCUAACACAGCAAC [gtspaired],-0.254
26,UUUUUUUUUUGAGAGCGACGCGCUCUCCUA [tttttgagapaired],0.11

row,Sequence,binding signal (log2 fold change)
1,GUGGUGUGUGUUGGAGCCUAACACACGCCG [gtspaired],-0.42
2,GUUGUGUGUGUUGGCAUCUAACACACGCAG [gtspaired],-0.762
3,GUGGUGUGUGUUGGCCUCUAACACACACUA [gtspaired],-0.378
4,UUUUUUUUUUGAGAGCGAGUCGCUCUCCUA [tttttgagapaired],0.111
5,UUUUUUUUUUGAGAGCGGCACGUUCUCCUA [tttttgagapaired],0.231
6,UUUUUUUUUUGAGAGCGGGUCGCUCUUCUG [tttttgagapaired],0.46
7,UUUUUUUUUUGAGAUGGGGGCUAUCUCCGG [tttttgagapaired],0.765
8,UUUUUUUUUUGAGACGGCUACCGUCUCCGG [tttttgagapaired],0.373
9,UUUUUUUUUUGAGACGGAAGCUGUCUCCAG [tttttgagapaired],0.817
10,GUGGUGUGUGUUGGACUCUAACACAUACCG [gtspaired],-0.535
11,GUGUGUGGUGUUGGCGUCUAACACCGCAUA [gtspaired],-0.591
12,GUGUGUUGUGUUGGUAUCUAACACAGCACA [gtspaired],-0.738
13,GUGUGGUGUGUUGGUGCCUAACACAUCACG [gtspaired],-0.539
14,UUUUUUUUUUGAGACUGGUUCAGUCUCCGG [tttttgagapaired],0.000972
15,UUUUUUUUUUGAGAUGGUUUCCGUCUCCGG [tttttgagapaired],0.679
16,GGUUGUGGUGUUGGAGCCUAACACCGCAGC [gtspaired],-0.319
17,GUGUGUUGUGUUGGAACCUAACACAGCACG [gtspaired],-0.884
18,UUUUUUUUUUGAGACUGCGACAGUCUCCGG [tttttgagapaired],0.385
19,UUUUUUUUUUGAGACGGUAGCCGUUUCCUA [tttttgagapaired],0.273
20,UUUUUUUUUUGAGAGGGGCUCCCUUUCCAG [tttttgagapaired],0.642
21,GUGGUGUGUGUUGGUACCUAACACAUACUA [gtspaired],-0.816
22,UUUUUUUUUUGAGAGGGUGUCCCUCUCCUG [tttttgagapaired],0.958
23,UUUUUUUUUUGAGAGUGCAGCAUUCUCCAG [tttttgagapaired],0.337
24,UUUUUUUUUUGAGAUCGUAACGAUCUCCAG [tttttgagapaired],0.0559
25,UUUUUUUUUUGAGAACGGAGCGUUCUCCAG [tttttgagapaired],0.206
26,UUUUUUUUUUGAGAUGGCAUCCAUCUCCUA [tttttgagapaired],0.212

row,Sequence,binding signal (log2 fold change)
1,UUUUUUUUUUGAGAUCGGUACGAUCUUCUG [tttttgagapaired],0.135
2,UUUUUUUUUUGAGAGGGCAGCCCUCUCCGG [tttttgagapaired],1.06
3,GUGUGUUGUGUUGGACCCUAACACAGCGCA [gtspaired],-0.465
4,GGUGUUGGUGUUGGUUCCUAACACCGACGC [gtspaired],-0.151
5,UUUUUUUUUUGAGAUGGUAACCAUUUCCAG [tttttgagapaired],0.185
6,UUUUUUUUUUGAGAGCGGAUCGCUCUUCUG [tttttgagapaired],0.201
7,UUCCUCUCUCCUCCUGGGGAGGGGGGAGGA [ctspaired],-0.174
8,UUUUUUUUUUGAGAAGGACUCCUUCUCCUG [tttttgagapaired],0.0114
9,GUGGUGUGUGUUGGCCCCUAACACACACUA [gtspaired],-0.133
10,UUUUUUUUUUGAGACGGAAACUGUUUCCAG [tttttgagapaired],0.631
11,UUUUUUUUUUGAGAACGAGGCGUUCUUCUA [tttttgagapaired],0.108
12,UUUUUUUUUUGAGAUGGAUGCCAUUUCCGG [tttttgagapaired],0.553
13,GUGUGUGGUGUUGGAUUCUAACACCGCACG [gtspaired],-0.0941
14,GUUGGUGGUGUUGGAACCUAACACCAUCAA [gtspaired],-0.266
15,UUUUUUUUUUGAGAGGGGCGCCCUCUCCUG [tttttgagapaired],0.772
16,UUUUUUUUUUGAGAGCGGAUCGUUCUCCAG [tttttgagapaired],0.252
17,UUUUUUUUUUGAGAGGGCUUCCCUCUCCUG [tttttgagapaired],0.824
18,UUUUUUUUUUGAGAUGGAUUCCGUCUCCAG [tttttgagapaired],0.162
19,GUGUUGUGUGUUGGUCCCUAACACACAACG [gtspaired],-0.155
20,GGUGUGUGUGUUGGAUCCUAACACAUACAC [gtspaired],-0.491
21,UUUUUUUUUUGAGAACGUGGCGUUCUCCGG [tttttgagapaired],0.31
22,UUUUUUUUUUGAGACUGGAUCAGUCUUCUA [tttttgagapaired],-0.0568
23,GGUUGUUGUGUUGGCACCUAACACAACGAC [gtspaired],-0.235
24,UUUUUUUUUUGAGAGGGUCCCCCUCUCCUG [tttttgagapaired],0.654
25,GUGGUGUGUGUUGGUCCCUAACACACACUA [gtspaired],-0.256
26,GUGGUUGGUGUUGGCGUCUAACACCGAUCA [gtspaired],-0.612

row,Sequence,binding signal (log2 fold change)
1,UUUUUUUUUUGAGACCGGGACGGUCUUCUA [tttttgagapaired],0.546
2,UUUUUUUUUUGAGACGGGAACUGUCUCCUA [tttttgagapaired],0.736
3,UUCCUCUCUCCUCCGGUGGAGGGGGGAGGA [ctspaired],-0.689
4,UUUUUUUUUUGAGAUGGGGGCCAUCUUCUG [tttttgagapaired],0.796
5,UUUUUUUUUUGAGACCGAUUCGGUCUUCUG [tttttgagapaired],0.18
6,UUUUUUUUUUGAGAUGGGAGCCAUCUUCUA [tttttgagapaired],0.119
7,GGUGGUUGUGUUGGCACCUAACACAAUCAC [gtspaired],-0.668
8,GUUGGUGGUGUUGGCCCCUAACACCGCCAA [gtspaired],-0.0443
9,UUUUUUUUUUGAGAUGGUAGCCAUUUCCAG [tttttgagapaired],0.368
10,UUUUUUUUUUGAGAUGGCGUCCAUCUCCUG [tttttgagapaired],0.812
11,UUUUUUUUUUGAGACUGGCACAGUCUCCUG [tttttgagapaired],0.56
12,UUUUUUUUUUGAGACCGGUUCGGUCUUCUG [tttttgagapaired],0.511
13,UUUUUUUUUUGAGACGGACACCGUCUUCUG [tttttgagapaired],0.521
14,UUUUUUUUUUGAGACCGUGACGGUCUCCUG [tttttgagapaired],0.389
15,UUUUUUUUUUGAGAGUGCGACAUUCUCCGG [tttttgagapaired],0.269
16,UUUUUUUUUUGAGACGGUAUCCGUUUCCAG [tttttgagapaired],0.531
17,UUUUUUUUUUGAGACUGAGACAGUUUCCGG [tttttgagapaired],0.532
18,UUUUUUUUUUGAGAGCGAGACGCUCUUCUG [tttttgagapaired],0.353
19,GUGUGUUGUGUUGGUGUCUAACACAGCACA [gtspaired],-0.689
20,UUUUUUUUUUGAGACUGGUGCAGUCUCCGG [tttttgagapaired],0.297
21,UUUUUUUUUUGAGACCGUAACGGUCUCCAG [tttttgagapaired],0.161
22,UUUUUUUUUUGAGAUGGAGUCCGUCUCCUA [tttttgagapaired],0.308
23,UUUUUUUUUUGAGAGCGUAUCGUUCUCCAG [tttttgagapaired],0.137
24,UUUUUUUUUUGAGAGGGACUCCCUCUCCUG [tttttgagapaired],0.419
